In the RNAGym collection of RNA variant scans (doi:10.7554/elife.90254):
The source gives no read counts; variants with many changes may rest on few reads.

B1: LINE1-mini (parent)
chain: GGCAGAGCUCAACACAGCGUGGCAAAGUGGCUGUGGCUAGACUGCC

Variants of: B1
Assay: self-cleavage, relative activity (ratio to wild type); higher = more cleavage; in vitro, sequencing; the parent is a self-cleaving ribozyme

Variant | self-cleavage
GGCAGAGCUCCAAACAGCGUGGCAAAGUGGCUGUCGCUAGACUACC | 0.02
GGCAGAGCUCCAGACAGCGUAGCAAAGGGGCUGUGGCUAGACUGCC | 0.01
GGCAGAGCUCCAGACAGCGUGGCAAAGAGGCUGUGGGUAGACUGCC | 0.01
GGCAGAGCUCCAUACAGCGUGGCGAAGUGGCUGUGGCUAGACUGCC | 0.03
GGCAGAGCUCCAUACAGCGUGGCAAAGUGGCUGUGGCUAGCCUGCC | 0.02
GGCAGAGCUCCAUACAGCGUGGCAAAGUGGCUGUGGCUAGUCUGCC | 0.01
GGCAGAGCUCCACAAAGCGUGGCAUAGUGGCUGUUGCUAAACUGCC | 0
GGCAGAGCUCCACAAAGCGUAGUAAAGUGGCUGUGGCUCGAGUGCC | 0.01
GGCAGAGCUCCACAGAGCGUGGCAAUGUGGCUGUGGCUAGACUGCC | 0.01
GGCAGAGCUCCACAGAGCGUGGCAAAGUGGUUGUCGCUAGACUGCC | 0.01
GGCAGAGCUCCACAGAGCCUGGCAAAGUGGCUAUGGCUAGACUGCC | 0.01
GGCAGAGCUCCACAGAGCGUGGCAAAGUGGCUAUGGCUAGACUGCC | 0
GGCAGAGCUCCACAGAGCGUGGCAAAGGGGCUAUGGCUAGACUGCC | 0.01
GGCAGAGCUCCACAUAGCGUGGCAAGGUGGCUGUGUCUAGACUGCC | 0.04
GGCAGAGCUCCACAUAGCGUGGUAAAGUGGAUGUGGCUAGACGGCC | 0
GGCAGAGCUCCACAUAGCGUGGCAAAGUGGCUGUGGCUAGACUGAC | 0.02
GGCAGAGCUCCACAUAGCGUGUCAAAGUGGCUGUGGCUAGACUGCC | 0.03
GGCAGAGCUCCACAUAGCGUGGCAAAGUAGCUGUGGCUAGACUGCC | 0.01
GGCAGAGCUCCACACAGAAUGGCAAAGUUGCUGUGGCUAGACUGCC | 0.04

Variant | self-cleavage
GGCAGAGCUCCACACAGACUGGCAAAGUAGCUGUGGCUAGACUGAC | 0.01
GGCAGAGCUCCACACAGAGUGGCAAAGUGGCUAUUGCUAGACUGCC | 0
GGCAGAGCUCCACACAGGGUGGCAAAGUGGCUUUGGCUAGUCUUAC | 0.02
GGCAGAGCUCCACACAGUGUGGCAAAGUGGAUGUGGCUUGACUUCC | 0
GGCAGAGCUCCACACAGCGUGGGAUAAUGGCUGUGGCUAGACUGCC | 0.04
GGCAGAGCUCCACACAGCGUGGGAUAGUGGCUGUGGCUAGACCGCC | 0.02
GGCAGAGCUCCACACAGCGUGGGAAAGUGGCUGUGGCUAGACCGGC | 0.04
GGCAGAGCUCCACACAGCGUGGUACAGUGGCUGUGGCUAGACUGCC | 0
GGCAGAGCUCCACACAGCGUGGUAAAGUGGCUGUAUCUAGACUGUC | 0.01
GGCAGAGCUCCACACAGCGUGGUAAAGUGGCUGUGGCUACACUGCC | 0.02
GGCAGAGCUCCACACAGCGUGGCAAAGUGGAUGUGGCUAGACUACC | 0.01
GGCAGAGCUCCACACAGCGUGGCAAAGUGGAUGGGGCUAGCCUGCC | 0.01
GGCAGAGCUCCACACAGCGUGGCAAAGUGGAUGUGGCUAGACCGCC | 0.01
GGCAGAGCUCCACACAGCGUGGCAAAGUGGGUUUGGCUAGACUGCC | 0.01
GGCAGAGCUCCACACAGCGUGGCAAAGUGGGUGAUUCUAGACUGCC | 0.01
GGCAGAGCUCCACACAGCGUGGCAAAGUGGCUGUGGUUAGACUGUC | 0.01
GGCAGAGCUCCACACACAGUGGCAAAGUGGCUGUGGCUAGACUGUC | 0
GGCAGAGCUCCACACACAGUUGCGAAGUGGCUGUGGCUGGACAGCC | 0.01
GGCAGAGCUCCACACACCGUGGCAAAGUGUAUGUGGCUAGACUGCC | 0.01

Variant | self-cleavage
GGCAGAGCUCCACACAGCAUGGCAAAGUGGCUGUGGCGAUACUGCC | 0.03
GGCAGAGCUCCACACAGCCUGGCAAAACGGGUGUGGCUAGACUGCC | 0.01
GGCAGAGCUCCACACAGCCUGGCAAAGUGGCUGUGGCUACACUGUC | 0.01
GGCAGAGCUCCACACAGCCCGGCAAAGUGGCUGUGGCUAGCCUGCC | 0
GGCAGAGCUCCACACAGCCUGGCAAAGUGGCUGAGGCUAGACUGCC | 0.02
GGCAGAGCUCCACACAGCUUGGCAAAGUGGUUGUGGCUAAACUGCC | 0
GGCAGAGCUCCACACAGCUUGUAAAAGAGGCUGUGGCUAGACUGCC | 0.25
GGCAGAGCUCCACACAGCUUGGCAAAGUGGCUUUGGGUAGACUGCC | 0.02
GGCAGAGCUCCACACAGCUUGGCAAAGUGGCCGUGGCUAGACUGCG | 0.05
GGCAGAGCUCCACACAGCGUAGCAUGGUGGUUGUGGCCAGACUGCC | 0
GGCAGAGCUCCACACAGCGUAGCAAAGUGGCUGUGGCUCGACUGCC | 0.01
GGCAGAGCUCCACACAGCGUAGCAAAGUGGCUGUGGCUAGCCUGCC | 0.01
GGCAGAGCUCCACACAGCGUCGCAAAGUGGCUGUGGCUAGGCUGCC | 0.03
GGCAGAGCUCCACACAGCGUUGCAAAGUGGCUGUGGCUACACUGCC | 0
GGCAGAGCUCCACACAGCGUGACAAAGUGGUAAUGGCUAGACUGCC | 0.01
GGCAGAGCUCCACACAGCGUGCCAGAGUCGCAGUGUCUAGACUACC | 0
GGCAGAGCUCCACACAGCGUGCCAAAGUGGCUGUGCCUAGACUGCC | 0.02
GGCAGAGCUCCACACAGCGUGUCAAAAUGGCUGUGGCUAGACUGCC | 0.02
